In the supplement of paper PMC11417369:
± gives the standard deviation of the averaged measurements. The list shows a part of the results.

These sequences were tested on PfAP2-LT AP2 domain (GST-tagged) (assay: gcPBM binding intensity (ln(normalized median fluorescence intensity)); higher = stronger DNA binding).
Method in brief: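 Plasmodium falciparum DNA-binding domains carrying a GST tag were expressed in E. coli and applied for 1 h, at about 25 μg on average, to an Agilent 4 × 180k array. The array held primer-extended double-stranded 36-bp intergenic genomic probes together with negative controls, and binding took place in 1× PBS with 1% milk, 0.2 mg/ml BSA, 0.5% salmon testes DNA and 0.03% Triton X-100. An Alexa488 anti-GST antibody detected bound protein, and the array was scanned at 488 nm. Binding intensity is taken as the highest Masliner-normalised natural-log median intensity across replicate spots of either probe orientation.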
In the case of “TTCTTCAATAATAAGTGTACATATGCATACATTATA [XGTACX_site1502]”, the “gcPBM binding intensity (ln)” value is reported as 8.88 ± 0.42. “AATTAAAAAATTTATGCACACTTTAAAAAAAAAAAA [CACACA_site5962]” was tested, and the “gcPBM binding intensity (ln)” value was 8.41 ± 0.48. In the case of “ATAATAAAATAAGAAGCACACAAATATTATATATAA [CACACA_site9319]”, the “gcPBM binding intensity (ln)” value is reported as 8.96 ± 0.42. With “ATCAAATTTGGACATGCATGTGTGTGTAAAACCATG [TGCATGCA_site309]” the “gcPBM binding intensity (ln)” value was 9.76 ± 0.31. With “ATATTAGTCGAATGATGTACACACATACAAAACATT [XGTACX_site8613]” the “gcPBM binding intensity (ln)” value was 9.28 ± 0.45. For “AATTATTCTCTTTTCATTTGAACAATATGCTTAAAA [CACACA_negctrl_site995]”, the “gcPBM binding intensity (ln)” value was 8.46 ± 0.45. With “AATATTTTTTAAATGTGTACATAGGTATAGCACACA [XGTACX_site8690]” the “gcPBM binding intensity (ln)” value was 8.97 ± 0.43. With “ACAAATATGAGAAATTGTACATATAATAAAATAGTA [XGTACX_site2573]” the “gcPBM binding intensity (ln)” value was 8.88 ± 0.52. “ACACATTCGAAAAATTGTACATATATAACAGAATAT [XGTACX_site7106]” was tested, and the “gcPBM binding intensity (ln)” value was 9.04 ± 0.42. For “AGTCATATAAATAGTAGTACTGTGTGTGAAGAAAAA [XGTACX_site5056]”, the “gcPBM binding intensity (ln)” value was 9.17 ± 0.42. In the case of “GACTGCACTTTAAGCACACAAATATATTTTTTTTAT [CACACA_site1249]”, the “gcPBM binding intensity (ln)” value is reported as 8.82 ± 0.36. “TTCTATTATGTGACTCAATTCTTCATGGGTGTATAA [TGCATGCA_negctrl_site140]” was tested, and the “gcPBM binding intensity (ln)” value was 8.85 ± 0.5. For “AATGTATTTATTTTTTGTACATATCGTGTGTGTATT [XGTACX_site1009]”, the “gcPBM binding intensity (ln)” value was 9.68 ± 0.48. With “TTTTTTTTTAAATATACACACACATTTATACATATA [CACACA_site9122]” the “gcPBM binding intensity (ln)” value was 9.16 ± 0.54. In the case of “TTTGGAATATAATATTGTACATATTATATATATATA [XGTACX_site3187]”, the “gcPBM binding intensity (ln)” value is reported as 8.6 ± 0.34. In the case of “CCTCATCCACTATGCACACAAAAAAGAAATACACTA [CACACA_site3422]”, the “gcPBM binding intensity (ln)” value is reported as 9.18 ± 0.48. In the case of “TTTTTTTTTTTTTTAACACACATATATATATTTTTC [CACACA_site1922]”, the “gcPBM binding intensity (ln)” value is reported as 8.76 ± 0.47. “TAATGGATTATACGTGCACACATATATACAAATAAA [CACACA_site8116]” was tested, and the “gcPBM binding intensity (ln)” value was 9.08 ± 0.42. For “TTCTCAAATATAATAAAATTATAAAGTGACCTAACT [GTGCAC_negctrl_site493]”, the “gcPBM binding intensity (ln)” value was 8.43 ± 0.35. With “TTATTTATTTTTATATGTACACAAAAAAAAAAAAAA [XGTACX_site1459]” the “gcPBM binding intensity (ln)” value was 8.16 ± 0.23. With “AATATATATAACGTTGGTACACAAAAATTATTAAAT [XGTACX_site8572]” the “gcPBM binding intensity (ln)” value was 9.05 ± 0.44. In the case of “AATACGCATTTTAGTACACACTTAAAAAGTTATTTT [CACACA_site7401]”, the “gcPBM binding intensity (ln)” value is reported as 8.73 ± 0.35. For “AATTATATTAATTCTTCATTACATTTTAAAATATTA [XGTACX_negctrl_site510]”, the “gcPBM binding intensity (ln)” value was 8.34 ± 0.42. “TGCTATTATTTATGTACACACCAATTTATTTATAAT [CACACA_site6029]” was tested, and the “gcPBM binding intensity (ln)” value was 8.97 ± 0.42.
